Results from paper PMC12136788.
This is one part of the list.

T1: UNK ZnF1-3 (human, UniProt Q9C0B0 31-174)
T1 sequence: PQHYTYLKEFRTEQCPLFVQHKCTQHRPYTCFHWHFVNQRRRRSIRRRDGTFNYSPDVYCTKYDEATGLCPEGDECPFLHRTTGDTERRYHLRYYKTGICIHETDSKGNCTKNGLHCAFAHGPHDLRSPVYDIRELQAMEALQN

B1: chr5:72798899:72798900:+_ENSG00000145741_ENST00000335895|hu_hu|motif|central (ssRNA)
RNA: GGGAGUUCUACAGUCCGACGAUCUGGUGCUUUUCCAUCCACAGAUUGUUUGGGCAGAGCUUCGGCCAGUCUCCUUAAACGGGUCAGACUAUCCGCACCAAGCUGGUUUAAGAUGCUGGGUAGCAUUUCUGUCAGCUGCUUUGUCAACAGAGGAUUGAGCAUCA
B2: 122662726_122664163_3219_CDS_ENSG00000120008_ENST00000263461|human|control|control (ssRNA)
RNA: GGGAGUUCUACAGUCCGACGAUCGUCUGUUUGACCCAAGAGCAGUAGCUGGUCUGUACAUUUCCUUGUAUGAUCAUAAGUUGACCGUUUCACUUCCUGCAGAUUAACCCUUUCUAGCUGAAAUUUCUGAAAGUAGGCAUUUUCCAACAGAGGAUUGAGCAUCA
B3: chr1:66461069:66461070:+_ENSMUSG00000015222_ENSMUST00000114013|mus_mus|motif|central (ssRNA)
RNA: GGGAGUUCUACAGUCCGACGAUCUUGACUAUCUGGUUUUACAGUGACUGGGCUUUCAUCAGCGACAGGUGGCAAACUGGUACGGCUCUCUGCAAGCAUAGCCUCUGAUGGGACUGAUUUCCUCCUGGCAACCUCAGCAUCUGCCAACAGAGGAUUGAGCAUCA
B4: chr11:79222206:79222207:+_ENSMUSG00000020716_ENSMUST00000071325|mus_hu|motif|central (ssRNA)
RNA: GGGAGUUCUACAGUCCGACGAUCUUUUGUAAAUUCAUCUGGAUAAUUUUCUACCCAGUUCCAAAAUGCCUUUUCCAGGCGGUUUAUAACUGCUAACUGCGCAACCUUCUUUAGGGCUUUAAAUUUAAAUGCUGUUUCCUUCAGCAACAGAGGAUUGAGCAUCA
B5: chr22:19452774:19452775:-_ENSG00000070010_ENST00000399523|hu_hu|hu_hu_hu_mus_False|58_78 (ssRNA)
RNA: GGGAGUUCUACAGUCCGACGAUCCUUCUCAUUGUAGUUGAUAGCAAUCACAUCUCCGGUGGUCAGACAGGCGAAGUUCCUAAGUGCAUUUUCUAAUACCGCUUUAGGGUUGGUAAUAUCCAGGAAGUCUGGGCUCUGAGGCUGCAACAGAGGAUUGAGCAUCA
B6: chr5:128448638:128448639:+_ENSG00000066583_ENST00000173527|hu_mus|hu_hu_hu_mus_False|68_98 (ssRNA)
RNA: GGGAGUUCUACAGUCCGACGAUCGGCACUCGCCUUAAUUAGAUUCUGAAUUUCCUUGAACUUCGGGUGGUCCUUAUCAGCCACCAGCUGUAGGAGGACAGCCUCACUAGUGGUCACGAUGAUCCCAGUGCGGGCAAGACGCUCCAACAGAGGAUUGAGCAUCA
B7: chr8:126347721:126347722:+_ENSMUSG00000019478_ENSMUST00000118535|mus_hu|FALSE|FALSE (ssRNA)
RNA: GGGAGUUCUACAGUCCGACGAUCCUGAUGAAGUAAGCAAGAUUUGCCAGUUCCUGCAUUUCCAAUAACCAAGAACUUAAACAAAAAAUCGUAGGUUUCGGACAUGGCCGUCUGCGACAUCUUGGGAGCGGCGCCGCCUCUCGCCAACAGAGGAUUGAGCAUCA
B8: chr6:38652254:38652255:-_ENSG00000124767_ENST00000373365|hu_hu|hu_hu_hu_mus_False|8_58 (ssRNA)
RNA: GGGAGUUCUACAGUCCGACGAUCCGAGAACUUCAUAGCAGGGAAGUCAAGCUUCUGCAGGAGGGUCAGUCCAAGAACUCUAGUAUAAAAAUCCAGGGACUUCUUAGGAUCCUUAAUUCUUAGCAUCGUCUGCUGCAGUAGAAACAACAGAGGAUUGAGCAUCA
B9: chr3:41280641:41280642:+_ENSG00000168036_ENST00000349496|hu_mus|FALSE|FALSE (ssRNA)
RNA: GGGAGUUCUACAGUCCGACGAUCCAUAGGGUCCAUCCCCAAGGCAUCCUGGCCGUAUCCACCAGAGUGAAAAGAACGGUAGCUGGGAUCAUCCUGGCGAUAUCCAAGGGCUUCUCCCUGGGCACCAAUGUCCAGUCCAAGAUCCAACAGAGGAUUGAGCAUCA
B10: chr5:21408736:21408737:-_ENSMUSG00000042453_ENSMUST00000161356|mus_hu|mus_mus_mus_hu_False|58_108 (ssRNA)
RNA: GGGAGUUCUACAGUCCGACGAUCGUUGACAGCAUUAUAGAUGGUGGCUUCAUGGAACUGGAAAGGGGAGCAGCCAAUGCUAUUGGAAGAGGAAGGAAGGCACUGGGUCUGUACGAGCUGCCAGGAAUCCGAUCUUGCAUCCUUCAACAGAGGAUUGAGCAUCA
B11: chr10:111893599:111893600:+_ENSG00000148700_ENST00000277900|hu_mus|FALSE|FALSE (ssRNA)
RNA: GGGAGUUCUACAGUCCGACGAUCCAGGCAGCAGCUGCUAAGGAGCAACAGUAACAACGCUCUGCCAGGGACGGCAGAGUCGGCCAAGCCAGCCACUGCUGAAAAGCUCGGCCGUUUUCGGACAUAUAAAAAGAGAUGAAUUUGCAACAGAGGAUUGAGCAUCA
B12: chr11:100445569:100445570:-_ENSMUSG00000014195_ENSMUST00000014339|mus_hu|FALSE|FALSE (ssRNA)
RNA: GGGAGUUCUACAGUCCGACGAUCUGGAUCAAAAUCACCCAUAUUCAUGCCCUCCUCAUCUAGGUCCUGUCCACUGUCAUAGCGAGUCUUUUUCUUGGGAUCAGAGAGGAUAGUAAAGGCCUCUCCAACUUCCUUGAACUUCUUCAACAGAGGAUUGAGCAUCA
B13: chr18:40848303:40848304:-_ENSG00000132872_ENST00000255224|hu_mus|motif|central (ssRNA)
RNA: GGGAGUUCUACAGUCCGACGAUCUAAAACCAGUUAUAGUUUCAAUCAACUUUCCCCAUCAAAACACUUUAAGUCGUAAAACGGAAAACUAUUUACAAUUUUUAAAGUAUUUGUUGUCAGAUUUAUUUUCUAUUUUAAAAAAAACAACAGAGGAUUGAGCAUCA
B14: chr15:78764095:78764096:+_ENSG00000136381_ENST00000258886|hu_hu|FALSE|FALSE (ssRNA)
RNA: GGGAGUUCUACAGUCCGACGAUCGUUUAUUUGAUGAGCCAUUCCAGUUCCAGGAGGGAUCACUGCCACAUUCUUAAAAACUCUUGAACUCCACUUAAAAAACUGAAGCCUCUCUCGAUUUCUGCCGAAUUCUACUUCUUGAUUCAACAGAGGAUUGAGCAUCA
B15: chr1:58468927:58468928:-_ENSMUSG00000026034_ENSMUST00000148330|mus_mus|mus_mus_mus_hu_False|58_108 (ssRNA)
RNA: GGGAGUUCUACAGUCCGACGAUCAAUCUAUAAUUACGAUGUUCAUUACCUUAGCUAUGUACUUAAUGAACCAAAUUAUCUAAAAAAAAUAAACAUGGCAAUAUAAAAAUGUUAAGAAUUUACAAAGCUGUACAAAAUAACUUACAACAGAGGAUUGAGCAUCA
B16: chr13:58910217:58910218:+_ENSMUSG00000055254_ENSMUST00000079828|mus_mus|motif|central (ssRNA)
RNA: GGGAGUUCUACAGUCCGACGAUCGCUGUUAGGUUCCAACCUCGGGAAUGCCACGAUGCCUGGAGAAGGCUCAGUACACCAAAUCCGGGCGGAACUGCAUUUGCAGGACGUCGGGCAGGCGAGAGAGGCCCUCCAGAAGCCCAACAACAGAGGAUUGAGCAUCA
B17: 39782579_39782699_3472_3pUTR_ENSG00000078140_ENST00000261427|human|control|control (ssRNA)
RNA: GGGAGUUCUACAGUCCGACGAUCUACAGCUAAUUAUUUCUUCUUUUAAAAGAGGCACAUACUCAGGAAACAGGCCUGAUUAUAACAAAAGCCUACUGGAGCAUCAGUGACUUCUAACAAAUCGGCCUGCCCUAAAUGGGAUUUCAACAGAGGAUUGAGCAUCA
B18: chr2:74399864:74399865:-_ENSG00000114978_ENST00000396049|hu_mus|FALSE|FALSE (ssRNA)
RNA: GGGAGUUCUACAGUCCGACGAUCAGAGCUCAUACUGAUGGGACCCUUCAGGGAUAUUCUUCUUUGGUUUGAAUGUUUUCGAAGAGCGGCUGCUGAAGAGGAAGCUCAUCCUCGCUAGCCCGAGGGGCCGUGGCCCCCGCCCCGCAACAGAGGAUUGAGCAUCA
B19: 134130677_134131770_1959_CDS_ENSG00000145833_ENST00000354283|human|control|control (ssRNA)
RNA: GGGAGUUCUACAGUCCGACGAUCCUUAUCCACAAAUAUAAUGACAGAUCCUGACUCUUGAUAAUGGCCUAGAAGCUCAAGUAACUUCAAGAAUUUCUUUUCUUCUUCAAUCACAAUCACUUGUUGCUCCACAUCUGAGCAAACCAACAGAGGAUUGAGCAUCA
B20: chr7:151048522:151048523:+_ENSG00000013374_ENST00000566856|hu_hu|FALSE|FALSE (ssRNA)
RNA: GGGAGUUCUACAGUCCGACGAUCUUGCUUCUUAUUUAUGACAAUUUUGAUAUAAUUUUCUUGAAGUCCAAAGGUUUCAGCUAUUUUGGACCUCAGUUCUCUGCCAGUGAUGUGCAAUCGGGUCUCCAACAAGUUUUUCCUAUCCAACAGAGGAUUGAGCAUCA
B21: chr11:77336104:77336105:-_ENSG00000074201_ENST00000525064|hu_mus|hu_hu_hu_mus_False|28_98 (ssRNA)
RNA: GGGAGUUCUACAGUCCGACGAUCCUCACACAUUGCUGUGAACAUUGCCUCCAAUGCUGACUUAUCACUGGGCACAAAUCGAAAUUCAGAAAUGGGUUCAACAUCAUCAUCACUGUCCUCAUCUUCAUCAGAGAGAGGUUCUUUCAACAGAGGAUUGAGCAUCA
B22: chr7:141450121:141450122:+_ENSG00000106028_ENST00000265304|hu_mus|hu_hu_hu_mus_True|28_68 (ssRNA)
RNA: GGGAGUUCUACAGUCCGACGAUCUCAUCCGUUCUAUGCCUUUUCUUUUGUCUGGUCACUCAGAAAUAUAAUAUUAUCAGCUAUGAUUGUUGUUGCUUGCCGCCUCACAUUAUUUUUAUCCAUGUACUCGCCAUAGUCCACUUUCAACAGAGGAUUGAGCAUCA

Biological target: T1, UNK ZnF1-3
Assay: nsRBNS (natural sequence RNA bind-n-seq); RBNS binding buffer (assumed for nsRBNS): 25 mM Tris pH 7.5, 150 mM KCl, 3 mM MgCl2, 0.01% Triton X-100, 500 ug/ml BSA, 20 U/ml SUPERase-In, 4 C; UNK is unkempt and MSI1 is Musashi-1; names of the RNAs are library labels; protein concentration not given here; high values mean tight binding

Q: Which binding signal does the source give for B1 here?
A: Its binding signal is 0.616 enrichment R.

Q: Which binding signal does the source give for B2 here?
A: Its binding signal is 0.78 enrichment R.

Q: Which binding signal does the source give for B3 here?
A: Its binding signal is 0.795 enrichment R.

Q: For B4, which binding signal is on record?
A: Its binding signal is 0.782 enrichment R.

Q: B5 was tested. Which binding signal did it give?
A: The binding signal was 1.03 enrichment R.

Q: How did the binding signal turn out when B6 was run?
A: The binding signal was 0.755 enrichment R.

Q: B7 was tested. Which binding signal did it give?
A: Its binding signal is 0.986 enrichment R.

Q: With B8 as the binder, how does the binding signal read?
A: Its binding signal is 1.24 enrichment R.

Q: With B9 as the binder, how does the binding signal read?
A: Its binding signal is 0.986 enrichment R.

Q: For B10, which binding signal is on record?
A: Its binding signal is 1.77 enrichment R.

Q: With B11 as the binder, how does the binding signal read?
A: Its binding signal is 1.2 enrichment R.

Q: For B12, which binding signal is on record?
A: The binding signal was 0.785 enrichment R.

Q: For B13, which binding signal is on record?
A: The binding signal was 1.75 enrichment R.

Q: For B14, which binding signal is on record?
A: Its binding signal is 1.44 enrichment R.

Q: With B15 as the binder, how does the binding signal read?
A: Its binding signal is 0.878 enrichment R.

Q: For B16, which binding signal is on record?
A: The binding signal was 0.599 enrichment R.

Q: For B17, which binding signal is on record?
A: The binding signal was 0.871 enrichment R.

Q: With B18 as the binder, how does the binding signal read?
A: The binding signal was 0.949 enrichment R.

Q: B19 was tested. Which binding signal did it give?
A: Its binding signal is 0.925 enrichment R.

Q: How did the binding signal turn out when B20 was run?
A: The binding signal was 0.673 enrichment R.

Q: B21 was tested. Which binding signal did it give?
A: Its binding signal is 0.972 enrichment R.

Q: How did the binding signal turn out when B22 was run?
A: The binding signal was 0.521 enrichment R.
